# Reference: paper PMC12136788
# Numbering of substitutions follows the chain as printed. Some of the results follow.
# T1: UNK ZnF1-3 (human, UniProt Q9C0B0 31-174)
# T1 sequence: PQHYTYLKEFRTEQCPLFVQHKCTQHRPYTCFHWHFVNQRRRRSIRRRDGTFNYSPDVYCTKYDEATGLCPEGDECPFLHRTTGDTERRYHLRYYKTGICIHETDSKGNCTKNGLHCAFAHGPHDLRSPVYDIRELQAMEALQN
# B1: chr7:125832625:125832626:-_ENSMUSG00000033917_ENSMUST00000038791|mus_hu|FALSE|FALSE (ssRNA)
# RNA: GGGAGUUCUACAGUCCGACGAUCAAGAUGGGAUUCGUAGUAACUCUUUUCAUCAAAGGUAUUAACAGUCCAACCAACAACCUGGAUUCCUUUAGCUGACCACUUCUUCAAGUAGGCCGGGGAUACAAAAUCCUUUUGCAUGAGCAACAGAGGAUUGAGCAUCA
# B2: chr19:32867047:32867048:+_ENSMUSG00000013663_ENSMUST00000013807|mus_mus|motif|central (ssRNA)
# RNA: GGGAGUUCUACAGUCCGACGAUCAGCACAUAGAUUGUAUAUCUUGUAAUGGUUUUUAUGCUUUGAAUCCAAAAACCUUACGGCAUCAUCAAUAUUGUUCCUGUAUACACCUUCAAGUCUUUCUGCAGGAAAUCCCAUAGCAAUCAACAGAGGAUUGAGCAUCA
# B3: chr6:13820011:13820012:-_ENSMUSG00000052419_ENSMUST00000155856|mus_hu|motif|central (ssRNA)
# RNA: GGGAGUUCUACAGUCCGACGAUCUAAAUGUUUUUUCCCUAGAGAUAAAAGUUUUCCUUUUUGCCUGACUCUCUGAUAUCGGAAUAUAAUAUUAACUUGGGAGACAACAAAACAAAAAUCUAAUUUAAAAGACUCCUCAACGAUCAACAGAGGAUUGAGCAUCA
# B4: chr12:39763582:39763583:-_ENSG00000139116_ENST00000544797|hu_mus|hu_hu_hu_mus_False|68_108 (ssRNA)
# RNA: GGGAGUUCUACAGUCCGACGAUCCUCUAAGAAUUGGGCAUUCACUUUGAAUUCAGGAGGGGGCAGCCCAUUUUUAAUCGCUGAGGUCUUUUUCUCAUCAAUACUCUUGAACAGGUGUCUAACAGCACGAGAGAUGAUGCCCUGCAACAGAGGAUUGAGCAUCA
# B5: chr22:42032659:42032660:+_ENSG00000196419_ENST00000405878|hu_hu|motif|central (ssRNA)
# RNA: GGGAGUUCUACAGUCCGACGAUCGUCUUCAUUGGUGAACAGCAUGAUCCUCUUAUGACUCAUCUUGAAUUGGACAUCACGGAAGAGGUUGGCACAGACCCACAGCACUUCACUGAGUGAGUAGUCAGAUCCGUGGCCCAUCAUCAACAGAGGAUUGAGCAUCA
# B6: 92864098_92864218_87_5pUTR_ENSMUSG00000034826_ENSMUST00000038514|mouse|control|control (ssRNA)
# RNA: GGGAGUUCUACAGUCCGACGAUCCGCGGGAGCAGCACUUAGAUGGCCCCGGGCUCGCGCGGCGCGACGCCCAGUGCCCUCCGCUCUUCUGUCCGGCUGGGAACCGUCAGGCGGUCCGUACCAUUAGUUCCGCCUCCUUCCCGGCAACAGAGGAUUGAGCAUCA
# B7: chr5:56177553:56177554:+_ENSG00000095015_ENST00000399503|hu_hu|FALSE|FALSE (ssRNA)
# RNA: GGGAGUUCUACAGUCCGACGAUCAUCUGCAAUAGCCAUCAAACGGCGACGCAUCCUGGUGAAGUGAGUGGAACUGGAAACACUCAGCAUUUCUAACAGUUUUGAAAACACAUGGGGUACUGUAGUAACCAUUCUUGCAGAACUCAACAGAGGAUUGAGCAUCA
# B8: chr19:42259214:42259215:+_ENSMUSG00000018820_ENSMUST00000165783|mus_mus|motif|central (ssRNA)
# RNA: GGGAGUUCUACAGUCCGACGAUCGCUAUAGUGACUGCUGCAGACUCAGAGACACUAGGAAAGUUGCAAGUGUAUAUUUUCGGUCGGAAUUUCUAACUAAAAUUUGCCCUGUUUUAUUCACUGGCCCAAAGGAUUCUUUUUUAACAACAGAGGAUUGAGCAUCA
# B9: chr19:16212804:16212805:+_ENSG00000167460_ENST00000300933|hu_mus|hu_hu_hu_mus_False|88_98 (ssRNA)
# RNA: GGGAGUUCUACAGUCCGACGAUCAACAAUUCUGGAGAAGAACAUCACAUCAAGGAUGAACAGCAUUAAAGCUCAGUCAGAAGGCACAUGGGCAACAAUGAUCACCCCAGCAUUCUCGCUUGGAAUGCUUAAAGACAAUCUGUUCAACAGAGGAUUGAGCAUCA
# B10: chr2:103616161:103616162:-_ENSMUSG00000027184_ENSMUST00000111147|mus_mus|FALSE|FALSE (ssRNA)
# RNA: GGGAGUUCUACAGUCCGACGAUCCUCAUCCACUUGCUCCUUCUCACCACUGCUGAACUGUGUUUCUGCCAUGAACUGCCUAUUGACAUACUCUGUUGAUUCAACCUCACUUUGCUCUGUGUAUUCUUCCGCUGGCUCAGGUUCCAACAGAGGAUUGAGCAUCA
# B11: chr7:54825262:54825263:-_ENSG00000132432_ENST00000352861|hu_hu|hu_hu_hu_mus_False|38_88 (ssRNA)
# RNA: GGGAGUUCUACAGUCCGACGAUCCUGCCGGCUGGGCUCCACAAACUUUACCUGAUCAUCCAUGUUUGUUGGAUGGCGGAUUGAGAGCGUAGAGACAACGUAGCACUGAGAGAACCGAGCCCAACGGAACCGGAAGCUGGCAACCAACAGAGGAUUGAGCAUCA
# B12: chr8:104447970:104447971:+_ENSG00000164934_ENST00000297579|hu_hu|hu_hu_hu_mus_False|68_78 (ssRNA)
# RNA: GGGAGUUCUACAGUCCGACGAUCAUACACUUCCCUGCUUCGGCUCUUGUCCACAGGAAAGAUUCGAAUAGAUUUAUCAAAGCUGGCAGACACAAAUUCCUUCCCAGUGGGAGAGUAGUCCACAUCAAGUACUGCAGACACGUGCAACAGAGGAUUGAGCAUCA
# B13: chr1:156288723:156288724:-_ENSG00000163468_ENST00000295688|hu_mus|FALSE|FALSE (ssRNA)
# RNA: GGGAGUUCUACAGUCCGACGAUCUCCUUUCUUGUACUCCAAAGAAGAAUCCAAUAGCACAAUUCGAGGAUUCUUAAUAUAGCGGCGCAUCCUUGGAUGGGUCACAUCCUUGUUAAUCAUAACUCCACGUAAGACACAUGAGUCCAACAGAGGAUUGAGCAUCA
# B14: chr8:109707966:109707967:+_ENSMUSG00000031924_ENSMUST00000034400|mus_hu|FALSE|FALSE (ssRNA)
# RNA: GGGAGUUCUACAGUCCGACGAUCUACUUAAAAGAAAAAUGGAAAAAUAAAACUUUCAACACUAGACUGCCGCCCUGUUAAGAAUGUCUAAUAUGCAAUCAAAGUAUUGGAAAGCAGGCAUUUUUACCAAAGAGCAAUGUCACUCAACAGAGGAUUGAGCAUCA
# B15: chr15:40510687:40510688:+_ENSG00000156970_ENST00000287598|hu_hu|motif|central (ssRNA)
# RNA: GGGAGUUCUACAGUCCGACGAUCCCAGAAGGACCCAUCCCAGAAGACCUGUAGGUGUUCCUUGAACAAUAGUAAAUGUGCGGAAUCUGCUAUACCAAACAGGUCUACCUGGUAGGGAGAAGAACAGUUAGCCAGGAUCUUUUGCAACAGAGGAUUGAGCAUCA
# B16: 6284760_6284880_1203_3pUTR_ENSG00000116237_ENST00000343813|human|control|control (ssRNA)
# RNA: GGGAGUUCUACAGUCCGACGAUCUGGAGUGUUGCUGAGGACAGAGUCCAUCUCUCCCAGCGAGUCCUGGUUAUCCUUUACUUACACUCUGGCCUCGGGGGCAGUGGCGUGUGGCCUCGGUCCUCCCCAGGUAACUCUGGAGGGCAACAGAGGAUUGAGCAUCA
# B17: chr8:104447970:104447971:+_ENSG00000164934_ENST00000297579|hu_hu|hu_hu_hu_mus_False|8_58 (ssRNA)
# RNA: B12 RNA with G65U, U72C, A78G, G81A, G84A, U129C
# B18: chr1:114949673:114949674:-_ENSG00000197323_ENST00000358465|hu_mus|motif|central (ssRNA)
# RNA: GGGAGUUCUACAGUCCGACGAUCGCAUAUCUCUUCUUCAGUCCCAGGUUCCUGCUUGACCUUCACCUGAUCAGACUUGAAACGGUGAGCACUUUUCUCAGCAGUUCUUCCUGAUGAUCCGCAGCUGCCUCGACUGCCAGUACUCAACAGAGGAUUGAGCAUCA
# B19: chrX:140365796:140365797:-_ENSMUSG00000031285_ENSMUST00000033642|mus_mus|mus_mus_mus_hu_False|18_98 (ssRNA)
# RNA: GGGAGUUCUACAGUCCGACGAUCCUUCUCAUUACUCAAUGCCUGCAAGGUUCUGGUUCGGUAGAAGCUACAGUGGGCGCUGUGAGUGGGGCUAGGCAACCCAUUCAUCCGGGAGCCUCUCAUAUUUCUGGAUGUCUUAUCUCUCAACAGAGGAUUGAGCAUCA
# B20: chr19:3053611:3053612:-_ENSG00000104964_ENST00000327141|hu_hu|FALSE|FALSE (ssRNA)
# RNA: GGGAGUUCUACAGUCCGACGAUCCUCCCAUCUGACCCUCCAGGCCUUAGCUUGCCUCACAUGUCAGGGCAGGUAUCCACCUAACCAGGCUGCAGGGGAGGAGGAGGGAAGCCGGGAAUGGGGUAGGAAGAAAGCUAGAGGUGGCAACAGAGGAUUGAGCAUCA
# B21: chr19:38862671:38862672:-_ENSMUSG00000024999_ENSMUST00000025963|mus_mus|motif|central (ssRNA)
# RNA: GGGAGUUCUACAGUCCGACGAUCCAGAAAGUAUUUACAUACACAUUUUGUAUUUGUAAGUCAUUUCUACAAUGAUAAUAGCGGUUAUAUAAAAUAGUUCUUUAUAACUAUUUAUAAACAUAUACAGUUUUUAUCUGUAAGAAUCAACAGAGGAUUGAGCAUCA
# B22: chr1:58468927:58468928:-_ENSMUSG00000026034_ENSMUST00000148330|mus_mus|mus_mus_mus_hu_False|18_28 (ssRNA)
# RNA: GGGAGUUCUACAGUCCGACGAUCAAUUACUGAAAAAGAUGUUCAUUACCUUAGCUAUGUACUUAAUGAACCAAAUUACCCAAACAAAAUAAACAUGGCAAUAUAAAAAGCUAUACAAAAUAACUUACUGUACAAAAUAACUUACAACAGAGGAUUGAGCAUCA
# Target: T1, UNK ZnF1-3
# Assay: nsRBNS (natural sequence RNA bind-n-seq); RBNS binding buffer (assumed for nsRBNS): 25 mM Tris pH 7.5, 150 mM KCl, 3 mM MgCl2, 0.01% Triton X-100, 500 ug/ml BSA, 20 U/ml SUPERase-In, 4 C; UNK is unkempt and MSI1 is Musashi-1; names of the RNAs are library labels; protein concentration not given here; high values mean tight binding
row,Binder,binding signal [enrichment R]
1,B1,0.714
2,B2,1.12
3,B3,1.49
4,B4,1.64
5,B5,1.32
6,B6,0.338
7,B7,1.01
8,B8,0.985
9,B9,1.27
10,B10,0.577
11,B11,1.02
12,B12,1.18
13,B13,0.571
14,B14,1.36
15,B15,0.4
16,B16,0.747
17,B17,0.929
18,B18,0.597
19,B19,0.876
20,B20,1.18
21,B21,0.292
22,B22,0.876
